Results as given in PubChem BioAssay AID588795 (National Center for Advancing Translational Sciences (NCATS), 2011).
Hit rate of the full screen: of about 390,000 compounds, about 1,400 (0.36%) were called active. This list was built around the results that the source calls inconclusive (neither active nor inactive); the mix of calls is not that of the screen. Calls follow the shape of the dose curve; as a rule, active = well fitted inhibition curve with a large enough effect; inconclusive = small, poorly fitted or top-dose-only effect; inactive = no such curve, though single readings can be large or run the other way. Where the call is inconclusive, the potency comes from a doubtful curve fit.

target: Flap endonuclease 1 (Homo sapiens) (UniProt P39748); assay: qHTS Assay for the Inhibitors of Human Flap endonuclease 1 (FEN1).; also: nearly all actives have a fitted effect of over 65% in size; conditions: Recombinant FEN1 flap cleavage, fluorescence, 15 min; series mostly up to 114 µM
UniProt P39748, sequence (P39748 whole entry, looked up): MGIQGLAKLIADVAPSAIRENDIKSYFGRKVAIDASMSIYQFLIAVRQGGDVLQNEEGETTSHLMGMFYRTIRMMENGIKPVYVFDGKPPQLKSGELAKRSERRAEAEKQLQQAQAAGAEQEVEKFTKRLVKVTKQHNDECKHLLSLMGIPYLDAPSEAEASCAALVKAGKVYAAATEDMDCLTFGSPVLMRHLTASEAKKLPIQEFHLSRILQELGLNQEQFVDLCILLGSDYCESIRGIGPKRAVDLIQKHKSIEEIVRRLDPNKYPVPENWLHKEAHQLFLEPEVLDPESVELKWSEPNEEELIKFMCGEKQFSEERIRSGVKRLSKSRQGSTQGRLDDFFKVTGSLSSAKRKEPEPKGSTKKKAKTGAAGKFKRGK
In short: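 Concentration–response screening of FEN1 (10 nM): 15 min compound preincubation at room temperature, reaction started with 50 nM substrate and read at 0 and 15 min. Corrected, normalized data were fitted by a four-parameter Hill equation.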
Potency is read from the fitted curve at half-maximal effect; tags tell the direction and shape of the fitted curve.

Compound | Potency
COc1ccc(C)cc1NC(=O)CCn1nc(C)cc1C | inactive
CC(=O)Nc1ccc(S(=O)(=O)NNc2ccc([N+](=O)[O-])cc2)cc1 | inconclusive: 89.1 µM [inhibitor, single point]
N=C(N)SCc1cccc2c(=O)cc(-c3ccccc3)oc12 | active: 50.1 µM
Cc1ccc2c(c1)c1ncnc(N3CCN(c4ccccc4)CC3)c1n2C | inconclusive: 50.1 µM [inhibitor, partial curve, poor fit]
COc1cccc(Nc2nc(Nc3ccc(Cl)c(C(=O)O)c3)nc(C)c2[N+](=O)[O-])c1 | inconclusive: 50.1 µM [inhibitor, partial curve, poor fit]
O=C(COC(=O)c1ccc([N+](=O)[O-])o1)NCc1ccccc1 | inconclusive: 28.2 µM [inhibitor, full curve]
Cc1cc(/C=N/NC(=O)c2cccc(N(C)C)c2)c(C)n1-c1cc(C(=O)O)cc(C(=O)O)c1 | inconclusive: 50.1 µM [inhibitor, partial curve, poor fit]
O=C1N=C(N2CCc3ccccc3C2)S/C1=C\c1ccc(O)cc1 | inconclusive: 79.4 µM [inhibitor, partial curve, poor fit]
CC1CCN(CCCNC(=O)c2cc3c(Cl)nc4ccccc4c3s2)CC1 | inconclusive: 50.1 µM [inhibitor, partial curve]
CN1C(C(=O)NCC2CC2)CC2Cn3c(nc4cc5ccccc5cc43)C21 (stereo not drawn) | inactive
CC(/C=C/c1ccc(N(C)C)cc1)=N\N=C(/N)SC1CC(=O)N(c2ccc(C(=O)O)cc2)C1=O (stereo not drawn) | inactive
CN(C)c1ccc(C(=O)OCC(=O)Nc2ccc(S(N)(=O)=O)cc2)cc1 | inconclusive: 50.1 µM [inhibitor, partial curve]
COc1cc2c(c(OC)c1CC=C(C)C)C[C@H](c1ccc(O)cc1O)CO2 | inconclusive: 79.4 µM [inhibitor, partial curve, poor fit]
COc1cc2c(C(=O)N(C)c3cc(Cl)ccc3OC)cn(CC(C)C)c(=O)c2cc1OC | inactive
N#CC(c1ccccc1O)N1N=C(c2ccccc2)CC1c1ccccc1 (stereo not drawn) | inconclusive: 44.7 µM [inhibitor, partial curve, poor fit]
O=C(OC(C(=O)NCc1cccs1)c1ccccc1Cl)c1ccco1 (stereo not drawn) | inconclusive: 79.4 µM [inhibitor, partial curve, poor fit]
CN(CC(=O)Nc1c(Cl)cccc1Cl)C(=O)c1cccc(S(=O)(=O)NCc2ccccc2)c1 | inactive
CCc1ccc(OCC(=O)Nc2ccc3c(c2)OCCO3)cc1 | inconclusive: 70.8 µM [inhibitor, partial curve, poor fit]
